This passage reports growth results from PubChem BioAssay (NCI).

A structure can be active in one record and inactive in another.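 Activity criterion: percent growth below 10, measured after cells in 96-well plates were exposed to a single compound concentration for 48 hours.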 A number of entries come with more than one value. The list is limited to them. An entry can have further records. These are repeated runs of one drug, at the concentration stated with the values; one value stands for one run. Additions like (4×) count equal records among those shown.

Experiment in all cases: NCI-60 one-dose screen, 48 h (100 = growth as untreated, 0 = no growth, -100 = all killed)
The test system of assay [1] is OVCAR-8 ovarian. The following applies: 2.5 mM.
Assay [2] has as its system OVCAR-5 ovarian. The following applies: 2.5 mM.
Assay [3] concerns OVCAR-4 ovarian. The following applies: 2.5 mM; runs of 1991.

Consider `O=c1[nH]cc(F)c(=O)[nH]1`, for which the growth entry in assay [1] (runs of 1997) was “inactive: 21.1, 35.4, 34.4, 47, 22.5, 29.1, 43.5, 10.8, 25.1, 42, 26.5 (2×), 24.9, 33.3, 22.7, 17.5, 34.2, 31.8, 24.6, 29.5 (3×), 30.8 (2×), 21.9, 19.5, 18.2, 27.2, 31.4, 31.6, 32.8, 28.9, 26.4, 32, 25.4, 29.2, 28.7, 40, 22.4, 27.3, 23.1% and active: -0.681%”; in assay [1] (runs of 1998), “inactive: 22.7, 18.3, 27, 28.2, 12.8, 32.8, 30.9, 21, 28.4, 25.7, 34.2, 31.5, 25.9, 16.7, 43.6, 31.4, 24.2, 20.6, 35.5, 30.1, 28.8, 38.4, 23.7% and active: -43.1%”; in assay [1] (runs of 1999) it was “inactive: 20.1, 20.4, 26.5, 24.5, 20.3, 27.2, 18.7% and active: -100, 0.0973, 2.22, 7.43, 1.11, 0.983, -72.4, -4.58, 6.41, 6.18%”; in assay [1] (runs of 2000), “active: 0.0677, 4.55, 2.59, 1.15%”; in assay [2] (runs of 1991), “active: -38.1, -27.3, -41.4, -33, -59.3, -24.9, -60.9, -27.4, -42.6, -4.79, 3.31, -52.7, -26.6, -2.2, -24.2, -75.8, -53%”; in assay [2] (runs of 1992) it was “active: -45 (2×), -45.2, -10.3, -5.57, -62.1, -74.1, -39.8 (2×), -37.8, -8.81, -42, -9.85, -42.5, 7.08, -30.1, -63 (2×), -50.4, -29.8 (2×), -66.5, -7.9, 4.71, 0.623, -2.75, -7.6, -4.13, -14.4 (2×), -7.48, -63.1, -37.5, -30.6, -57.8, -60, -31, -40.2, -3.33, -1.37, 2.34, -9.81, -10, -2.21, 9.92, -23.8, -31.2, -31.5, -64.9, -25.9, -36.6, -12, -59.6, -18.5, 6.19, -43.2, -47.1, -26.9, 3.71, -53.6, -0.338, -41.6, -12.5, -25.2, -7.19, -32.3, -17.6, -5.77, -51.5, -28.2, -27.5, -2.83, -21.9, -56, 6.33, -37.7, -29.6, -22.7, -44.6, -40, -31.7, -35.4, -20.1, -22.6 (2×), -33.3, -21.5, 0.078, -13.5, -0.417, 1.68, -0.347, -12.3, -5.39, -39.1, -68.8, -26.3, -14% and inactive: 12.1, 10.3, 94.5, 10.9, 28.5, 232, 14, 14.6, 25.5, 17.2%”. The growth result is “active: -4.64, -4.76, -61.8, -17.1, -7.57, -69.7, -26.4 (2×), -30.5, -23, -1.29, -62.6, -51.4, -0.292, 7.05, -47.6, -34.1, -50, -76.1, -0.469, -2.02, -18, -39.5, -27.7, -20.2, 0.879, 2.32% and inactive: 16.9, 21.2, 18.3, 34.1, 15.9, 16.8, 16.7, 15, 29.9, 14.9, 117, 109, 17.8, 40.1, 42.9, 31.4%” in assay [2] (runs of 1993); “inactive: 17, 26.7, 14.3 (2×), 19.5, 22.4, 33.9, 14.2, 24.3, 29.3, 10.9, 11, 35.8, 30% and active: -40.3, -31.5, -7.06, -9.91, 5.63, 8.51, -3.96, -6.73, -23, -1.82, -10.1, -27.5, -45.4, -32.3, 1.63, -53.8, -38.6, -31.4, -35.2, 1.27%” in assay [2] (runs of 1994); “inactive: 13.6, 42.9, 33 (2×), 17.2, 11.3, 18.1, 14.3, 26.1, 25.1, 29.4, 14.5, 26.6, 34.4, 26.8, 10.9, 11.6% and active: -3.46, 9.98, -27.2, -11.1, -17.2, -2.45, -15.9, 3.43, -25.3, -47.5, -28, 7.47, 9.87, -31.2, -12.2, -51, -6.9, -19.9, -40%” in assay [2] (runs of 1995); “inactive: 19.1, 39, 34.2, 33.9, 40.1, 33.5, 45, 47.1, 21.8, 10.2 (2×), 11.4, 13.7, 26.5, 27.4, 43.1, 15.9, 13.9, 20.3, 18.8, 28.2, 35.3, 41.6, 22.4, 44.2, 11.2, 29.8, 36.7, 38.1, 13.2, 14.1, 39.3, 44.3, 34.1% and active: -35.5, 7.76, -0.646, -52.6, -0.627, 5.19, -19.6, 2.12, -46.2, -44.4, -12.2, -13, -40.1, 5.81, 1.93, -9.82, 2.37, -4.46, -25.3, 3.1, -5.54, -6.62, -22.8, -23%” in assay [2] (runs of 1996); “inactive: 16.4, 18.6, 19.5, 11.6, 47.8, 14.1, 18.8, 21.1, 37.7, 12.5, 25.8, 17.4, 36.8, 43.1, 29.5, 114, 31, 43.3, 15.4, 33, 37.6, 49.3, 22.6% and active: -11.6 (2×), -1.18, -28.2, -0.811, -44.8, -47.6, 6.98 (2×), -14.7, -8.46, -18.6, -6.73, -4.98, -12.2, 1.79, -0.976, -10.2, -18.8, 8.39, -5.38, 7.8%” in assay [2] (runs of 1997); “inactive: 38.2, 48.5, 18.9, 41.1, 35, 27.4, 25.7, 12.7, 34.6% and active: -12.3, 0.143, 3.87, -13.9, -16.7, -30.8, -13.2, -9.28, -42.7, 9.28, -16.9, -45.1, 1.65, -0.126, -52.9%” in assay [2] (runs of 1998). The growth result in assay [2] (runs of 1999) is “inactive: 18.2%, 32.4%, 14.9% and active: 3.25, 5.19, 3.63, -63, -23, 2.41, -15.9, 0.831, 0.873, -24, -44.8, 0.678, -59.3, 2.98%”; in assay [2] (runs of 2000), “active: -55, 1.73, 2.06, -17%”; in assay [3], “active: -21, -32.3, -34.1, -8.59, -41.4, -13.8, -21.8, -14.6, -44.7, -5.87, -30.2, -41.8, -20.3, -33.6, -20.7, -45.5, -39.1, -43.8% and inactive: 13.6%”.
